Some of the results follow.
What was measured:
Assay in all cases: glycan array binding signal (z-score within array); higher = stronger binding
Details in all cases: glycan notation: IUPAC condensed, linker removed
Gal(a1-4)GlcNAc = biological target: Gal(a1-4)GlcNAc
Summary of the method: (§1)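 The Consortium for Functional Glycomics database supplied 3228 glycan arrays, of which those lacking an available protein sequence were dropped. The binding signal, a within-array Z-score, was averaged across arrays of the same protein sequence and across linkers. Negative scores can be read as non-binding.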

Gal(a1-6)Glc = biological target: Gal(a1-6)Glc
Summary of the method: as §1

Gal(b1-2)Gal = biological target: Gal(b1-2)Gal
Summary of the method: as §1

Gal(b1-3)Gal = biological target: Gal(b1-3)Gal
Summary of the method: as §1

Gal(b1-3)GalNAc = biological target: Gal(b1-3)GalNAc
Summary of the method: as §1

[1] = biological target: Gal(b1-3)GalNAc(b1-3)Gal(a1-4)Gal(b1-4)Glc
Summary of the method: as §1

[2] = biological target: Gal(b1-3)GalNAc(b1-3)Gal(b1-4)Glc
Summary of the method: as §1

[3] = biological target: Gal(b1-3)GalNAc(b1-3)Gal(b1-4)GlcNAc
Summary of the method: as §1

[4] = biological target: Gal(b1-3)GalNAc(b1-4)Gal(b1-4)Glc
Summary of the method: as §1

[5] = biological target: Gal(b1-3)GalNAc(b1-4)[Neu5Ac(a2-3)]Gal(b1-4)Glc
Summary of the method: as §1

[6] = biological target: Gal(b1-3)[Fuc(a1-4)]GlcNAc
Summary of the method: as §1

[7] = biological target: Gal(b1-3)[Fuc(a1-4)]GlcNAc(b1-3)Gal(b1-4)GlcNAc
Summary of the method: as §1

[8] = biological target: Gal(b1-3)[Fuc(a1-4)]GlcNAc(b1-3)Gal(b1-4)[Fuc(a1-3)]GlcNAc
Summary of the method: as §1

[9] = biological target: Gal(b1-3)[GlcNAc(b1-6)]GalNAc
Summary of the method: as §1

[10] = biological target: Gal(b1-3)[GlcNAc(b1-6)]GlcNAc
Summary of the method: as §1

[11] = biological target: Gal(b1-3)[Neu5Ac(a2-6)]GalNAc
Summary of the method: as §1

[12] = biological target: Gal(b1-3)[Neu5Ac(a2-6)]GlcNAc
Summary of the method: as §1

[13] = biological target: Gal(b1-3)[Neu5Ac(a2-6)]GlcNAc(a1-4)Gal(b1-4)Glc
Summary of the method: as §1

[14] = biological target: Gal(b1-3)[Neu5Ac(b2-6)]GlcNAc
Summary of the method: as §1

[15] = biological target: Gal(b1-4)GalNAc(a1-3)[Fuc(a1-2)]Gal(b1-4)GlcNAc
Summary of the method: as §1

[16] = biological target: Gal(b1-4)GalNAc(b1-3)[Fuc(a1-2)]Gal(b1-4)GlcNAc
Summary of the method: as §1

Gal(b1-4)Glc = biological target: Gal(b1-4)Glc
Summary of the method: as §1

Gal(b1-4)Glc6S = biological target: Gal(b1-4)Glc6S
Summary of the method: as §1

Gal(b1-4)GlcNAc = biological target: Gal(b1-4)GlcNAc
Summary of the method: as §1

[17] = biological target: Gal(b1-4)GlcNAc(b1-2)Man(a1-3)[Gal(b1-4)GlcNAc(b1-2)Man(a1-6)]Man(b1-4)GlcNAc(b1-4)GlcNAc
Summary of the method: as §1

[18] = biological target: Gal(b1-4)GlcNAc(b1-3)Gal(b1-4)Glc
Summary of the method: as §1

[19] = biological target: Gal(b1-4)GlcNAc(b1-3)Gal(b1-4)GlcNAc
Summary of the method: as §1

[20] = biological target: Gal(b1-4)GlcNAc(b1-3)Gal(b1-4)GlcNAc(b1-3)Gal(b1-4)GlcNAc
Summary of the method: as §1

[21] = biological target: Gal(b1-4)GlcNAc(b1-3)Gal(b1-4)[Fuc(a1-3)]GlcNAc(b1-3)Gal(b1-4)[Fuc(a1-3)]GlcNAc
Summary of the method: as §1

[22] = biological target: Gal(b1-4)GlcNAc(b1-3)GalNAc
Summary of the method: as §1

[23] = biological target: Gal(b1-4)GlcNAc(b1-3)[Gal(b1-4)GlcNAc(b1-6)]GalNAc
Summary of the method: as §1

[24] = biological target: Gal(b1-4)GlcNAc(b1-6)GalNAc
Summary of the method: as §1

[25] = biological target: Gal(b1-4)GlcNAc(b1-6)[Gal(b1-3)]GalNAc
Summary of the method: as §1

[26] = biological target: Gal(b1-4)GlcNAc(b1-6)[Gal(b1-3)]GlcNAc
Summary of the method: as §1

Gal3S(b1-3)GalNAc = biological target: Gal3S(b1-3)GalNAc
Summary of the method: as §1

Gal3S(b1-3)GlcNAc = biological target: Gal3S(b1-3)GlcNAc
Summary of the method: as §1

[27] = biological target: Gal3S(b1-3)[Fuc(a1-4)]GlcNAc
Summary of the method: as §1

Gal3S(b1-4)Glc = biological target: Gal3S(b1-4)Glc
Summary of the method: as §1

Gal3S(b1-4)Glc6S = biological target: Gal3S(b1-4)Glc6S
Summary of the method: as §1

Gal3S(b1-4)GlcNAc = biological target: Gal3S(b1-4)GlcNAc
Summary of the method: as §1

Gal3S(b1-4)GlcNAc6S = biological target: Gal3S(b1-4)GlcNAc6S
Summary of the method: as §1

Gal3S6S(b1-4)GlcNAc = biological target: Gal3S6S(b1-4)GlcNAc
Summary of the method: as §1

Gal3S6S(b1-4)GlcNAc6S = biological target: Gal3S6S(b1-4)GlcNAc6S
Summary of the method: as §1

Gal4S(b1-4)GlcNAc = biological target: Gal4S(b1-4)GlcNAc
Summary of the method: as §1

Gal4S6S(b1-4)GlcNAc = biological target: Gal4S6S(b1-4)GlcNAc
Summary of the method: as §1

B1: Tulipa lectin C-1 (Tulipa hybrid) (protein)
chain: MGMALVVALAVALASTVAGQQNVLLSGNTLANEESLSYGSVKFIMQNDCNLVLYGGGFQSNTASNGKKCTLTLNNNGHLIINDGLTGRVVWRNSNAQNPVGRYAAVLRPAPGTADVAIYGPAIWSTNDEFSYQESGVVPHKLGRETPNLPRMQNLLFSGQTLYGTDGMLSSNDGSTTFELSKCQLSLSLGNEVKWKVAPTVENGKENYCHVRLDHRGHLSLLNDDNVVLFRSIPTNGVEPPIGDYVLIVEKGAGYIYGPPIWNTYDNRRYKVASA
glycan array binding signal (z-score) (Gal(a1-4)GlcNAc): -0.189
glycan array binding signal (z-score) (Gal(a1-6)Glc): -0.147
glycan array binding signal (z-score) (Gal(b1-2)Gal): -0.164
glycan array binding signal (z-score) (Gal(b1-3)Gal): -0.202
glycan array binding signal (z-score) (Gal(b1-3)GalNAc): -0.216
glycan array binding signal (z-score) [1]: -0.226
glycan array binding signal (z-score) [2]: -0.226
glycan array binding signal (z-score) [3]: -0.219
glycan array binding signal (z-score) [4]: -0.163
glycan array binding signal (z-score) [5]: -0.159
glycan array binding signal (z-score) [6]: -0.198
glycan array binding signal (z-score) [7]: -0.222
glycan array binding signal (z-score) [8]: -0.225
glycan array binding signal (z-score) [9]: -0.229
glycan array binding signal (z-score) [10]: -0.226
glycan array binding signal (z-score) [11]: -0.224
glycan array binding signal (z-score) [12]: -0.222
glycan array binding signal (z-score) [13]: -0.23
glycan array binding signal (z-score) [14]: -0.219
glycan array binding signal (z-score) [15]: -0.129
glycan array binding signal (z-score) [16]: -0.211
glycan array binding signal (z-score) (Gal(b1-4)Glc): -0.211
glycan array binding signal (z-score) (Gal(b1-4)Glc6S): -0.208
glycan array binding signal (z-score) (Gal(b1-4)GlcNAc): -0.225
glycan array binding signal (z-score) [17]: 5.37
glycan array binding signal (z-score) [18]: -0.193
glycan array binding signal (z-score) [19]: -0.137
glycan array binding signal (z-score) [20]: -0.242
glycan array binding signal (z-score) [21]: -0.223
glycan array binding signal (z-score) [22]: -0.23
glycan array binding signal (z-score) [23]: -0.131
glycan array binding signal (z-score) [24]: -0.157
glycan array binding signal (z-score) [25]: -0.242
glycan array binding signal (z-score) [26]: -0.225
glycan array binding signal (z-score) (Gal3S(b1-3)GalNAc): -0.174
glycan array binding signal (z-score) (Gal3S(b1-3)GlcNAc): -0.18
glycan array binding signal (z-score) [27]: -0.07
glycan array binding signal (z-score) (Gal3S(b1-4)Glc): -0.179
glycan array binding signal (z-score) (Gal3S(b1-4)Glc6S): -0.182
glycan array binding signal (z-score) (Gal3S(b1-4)GlcNAc): -0.154
glycan array binding signal (z-score) (Gal3S(b1-4)GlcNAc6S): -0.206
glycan array binding signal (z-score) (Gal3S6S(b1-4)GlcNAc): -0.168
glycan array binding signal (z-score) (Gal3S6S(b1-4)GlcNAc6S): -0.02
glycan array binding signal (z-score) (Gal4S(b1-4)GlcNAc): -0.184
glycan array binding signal (z-score) (Gal4S6S(b1-4)GlcNAc): -0.176

— the supplement of paper PMC8728848
